This sample is rich in variants without activity.
B1: tRNA (parent)
chain: CUCUCGGUAGCCAAGUUGGUUUAAGGCGCAAGACUUUAAUUUAUCACUACGAAAUCUUGAGAUCGGGCGUUCGACUCGCCCCCGGGAGAUUUUUUCCUCGAGCAA

Variants of: B1
Experiment: nonsense suppression (GFP-seq) (ratio to wild type); higher = more function; SUP4oc tRNA, yeast GFP reporter sort-seq
In short: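 Yeast carrying genome-integrated SUP4oc tRNA variants from a library with ~3% random mutations were grown in raffinose/galactose medium with 80 mg/L adenine. Each strain also carried a galactose-driven GFP ochre reporter and RFP. Cells were sorted into GFP/RFP bins, and each bin was Illumina-sequenced (phred ≥30). Nonsense suppression (GFPSEQ) is the bin median GFP/RFP, weighted by each variant's estimated cell share per bin, relative to wild-type SUP4oc; variants needed ≥100 reads and ≥30 cells.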

Going from G32U C56A C72G to G32U C56G, the nonsense suppression rises from no more than 0.026 to 0.207.

G32U C56U C83G and G32U C64A C81G cannot be ordered by nonsense suppression: no more than 0.026 for the first, no more than 0.026 for the second.

G32U C64U A74C and G32U C75A cannot be ordered by nonsense suppression: no more than 0.026 for the first, no more than 0.026 for the second.

G32U C75G and G32U C81G cannot be ordered by nonsense suppression: no more than 0.026 for the first, no more than 0.026 for the second.

G32U G65U and G32U G66A cannot be ordered by nonsense suppression: no more than 0.026 for the first, no more than 0.026 for the second.

G32U G66U G69U and G32U G69A C75U C80A cannot be ordered by nonsense suppression: no more than 0.026 for the first, no more than 0.026 for the second.

G32U G69U and G32U G73A cannot be ordered by nonsense suppression: no more than 0.026 for the first, no more than 0.026 for the second.

G32U G78A and G32U G86A cannot be ordered by nonsense suppression: no more than 0.026 for the first, no more than 0.026 for the second.

G32U G88U and G32U U55A cannot be ordered by nonsense suppression: no more than 0.026 for the first, no more than 0.026 for the second.

G32U U55G U71G G86U and G32U U57A G61A cannot be ordered by nonsense suppression: no more than 0.026 for the first, no more than 0.026 for the second.

G32U U58A G59U G88C and G32U U58G cannot be ordered by nonsense suppression: no more than 0.026 for the first, no more than 0.026 for the second.

G32U U70A C75A and G32U U71A cannot be ordered by nonsense suppression: no more than 0.026 for the first, no more than 0.026 for the second.

G32U U71C G85U and A33C A54U U63A cannot be ordered by nonsense suppression: no more than 0.026 for the first, no more than 0.026 for the second.

A33C A62C G69A C82U and A33C A74G cannot be ordered by nonsense suppression: no more than 0.026 for the first, no more than 0.026 for the second.

A33C C34U A87G and A33C C34U C75G cannot be ordered by nonsense suppression: no more than 0.026 for the first, no more than 0.026 for the second.

A33C C34U C75U and A33C C34U C79A A87U cannot be ordered by nonsense suppression: no more than 0.026 for the first, no more than 0.026 for the second.

A33C C34U U70C and A33C C64A G66C U70A A87U cannot be ordered by nonsense suppression: no more than 0.026 for the first, no more than 0.026 for the second.

A33C C64U C72U C79A and A33C C81A cannot be ordered by nonsense suppression: no more than 0.026 for the first, no more than 0.026 for the second.

A33C G61A A62G G73C and A33C G67U cannot be ordered by nonsense suppression: no more than 0.026 for the first, no more than 0.026 for the second.

A33C G67U A74G and A33C G67U A74U cannot be ordered by nonsense suppression: no more than 0.026 for the first, no more than 0.026 for the second.

A33C G67U C80G and A33C G78A cannot be ordered by nonsense suppression: no more than 0.026 for the first, no more than 0.026 for the second.

A33C G86U and A33C U55C C64G U76C cannot be ordered by nonsense suppression: no more than 0.026 for the first, no more than 0.026 for the second.

A33C U57G C64G and A33C U63A cannot be ordered by nonsense suppression: no more than 0.026 for the first, no more than 0.026 for the second.

A33C U63C G78U A87C and A33C U63G cannot be ordered by nonsense suppression: no more than 0.026 for the first, no more than 0.026 for the second.

A33C U71G C80G G88C and A33G A54C U57G cannot be ordered by nonsense suppression: no more than 0.026 for the first, no more than 0.026 for the second.

A33G A54G A62U U63C U70G G73A and A33G A54G A74C cannot be ordered by nonsense suppression: no more than 0.026 for the first, no more than 0.026 for the second.

A33G A54U G67U U71C G73U and A33G A60C G86U cannot be ordered by nonsense suppression: no more than 0.026 for the first, no more than 0.026 for the second.

A33G A60G G67C U71C C72U and A33G A60U G65C G66C cannot be ordered by nonsense suppression: no more than 0.026 for the first, no more than 0.026 for the second.

A33G A62C U63C U70C C79G and A33G A62G G65A G73C cannot be ordered by nonsense suppression: no more than 0.026 for the first, no more than 0.026 for the second.

A33G A74C and A33G A74C C83A cannot be ordered by nonsense suppression: no more than 0.026 for the first, no more than 0.026 for the second.

A33G A87C and A33G A87U G88U cannot be ordered by nonsense suppression: no more than 0.026 for the first, no more than 0.026 for the second.

A33G C56A U58A G69C and A33G C56G cannot be ordered by nonsense suppression: no more than 0.026 for the first, no more than 0.026 for the second.

A33G C56U and A33G C56U G78A C81U G84A cannot be ordered by nonsense suppression: no more than 0.026 for the first, no more than 0.026 for the second.

A33G C64A and A33G C64G G86A cannot be ordered by nonsense suppression: no more than 0.026 for the first, no more than 0.026 for the second.

A33G C64G U76A and A33G C68A cannot be ordered by nonsense suppression: no more than 0.026 for the first, no more than 0.026 for the second.

Going from A33G C68G to A33G C75A, the nonsense suppression rises from no more than 0.026 to 0.235.

A33G C79A and A33G C79A C82U cannot be ordered by nonsense suppression: no more than 0.026 for the first, no more than 0.026 for the second.

A33G G61C U76A and A33G G65A cannot be ordered by nonsense suppression: no more than 0.026 for the first, no more than 0.026 for the second.

A33G G65A A87C and A33G G65U G86C cannot be ordered by nonsense suppression: no more than 0.026 for the first, no more than 0.026 for the second.

A33G G69A C72U and A33G G69C U76G cannot be ordered by nonsense suppression: no more than 0.026 for the first, no more than 0.026 for the second.

A33G G73C C81A and A33G G73U cannot be ordered by nonsense suppression: no more than 0.026 for the first, no more than 0.026 for the second.

A33G G78U and A33G G85U cannot be ordered by nonsense suppression: no more than 0.026 for the first, no more than 0.026 for the second.

A33G G86U and A33G U55A cannot be ordered by nonsense suppression: no more than 0.026 for the first, no more than 0.026 for the second.

A33G U55A A62U and A33G U55A C83G cannot be ordered by nonsense suppression: no more than 0.026 for the first, no more than 0.026 for the second.

A33G U55A U70C C80G and A33G U55C G85C A89C cannot be ordered by nonsense suppression: no more than 0.026 for the first, no more than 0.026 for the second.

A33G U57A and A33G U57A U76C cannot be ordered by nonsense suppression: no more than 0.026 for the first, no more than 0.026 for the second.

A33G U57C C81U and A33G U63G G66U C72A cannot be ordered by nonsense suppression: no more than 0.026 for the first, no more than 0.026 for the second.

A33G U63G U70A and A33G U70C cannot be ordered by nonsense suppression: no more than 0.026 for the first, no more than 0.026 for the second.

Compared with A33G U70G, A33G U76C is higher in nonsense suppression: no more than 0.026 for the first, 0.0419 for the second.

A33G U76G and A33U A54C A60C cannot be ordered by nonsense suppression: no more than 0.026 for the first, no more than 0.026 for the second.

A33U A60C and A33U A62G C64U cannot be ordered by nonsense suppression: no more than 0.026 for the first, no more than 0.026 for the second.

A33U A74U and A33U A74U G84U G85A cannot be ordered by nonsense suppression: no more than 0.026 for the first, no more than 0.026 for the second.

A33U C34G U58A G61C and A33U C34U cannot be ordered by nonsense suppression: no more than 0.026 for the first, no more than 0.026 for the second.

A33U C56G and A33U C56G G67C cannot be ordered by nonsense suppression: no more than 0.026 for the first, no more than 0.026 for the second.

A33U C64U C72U C80A and A33U C68U cannot be ordered by nonsense suppression: no more than 0.026 for the first, no more than 0.026 for the second.

First: A33U C72G G88U
Second: A33U C75A
The nonsense suppression of the first is lower: no more than 0.026 for the first, 0.192 for the second.

A33U C75A A89U and A33U C77A C80A cannot be ordered by nonsense suppression: no more than 0.026 for the first, no more than 0.026 for the second.

A33U C77G and A33U C79A cannot be ordered by nonsense suppression: no more than 0.026 for the first, no more than 0.026 for the second.

A33U C80G C81A and A33U C81A cannot be ordered by nonsense suppression: no more than 0.026 for the first, no more than 0.026 for the second.

A33U G66A and A33U G67C cannot be ordered by nonsense suppression: no more than 0.026 for the first, no more than 0.026 for the second.

A33U G69U and A33U G78A cannot be ordered by nonsense suppression: no more than 0.026 for the first, no more than 0.026 for the second.

A33U U35A and A33U U55A G78U C83G cannot be ordered by nonsense suppression: no more than 0.026 for the first, no more than 0.026 for the second.

A33U U55C and A33U U55C A74G cannot be ordered by nonsense suppression: no more than 0.026 for the first, no more than 0.026 for the second.

Going from A33U U55G to A33U U55G G61A, the nonsense suppression falls from 0.167 to no more than 0.026.

A33U U55G U63C and A33U U57A cannot be ordered by nonsense suppression: no more than 0.026 for the first, no more than 0.026 for the second.

A33U U58A G66A G69A C82U and A33U U58G A62U C81U G86C cannot be ordered by nonsense suppression: no more than 0.026 for the first, no more than 0.026 for the second.

Going from A33U U63A to A33U U63A C72U, the nonsense suppression falls from 0.0268 to no more than 0.026.

A33U U76C and C34A cannot be ordered by nonsense suppression: no more than 0.026 for the first, no more than 0.026 for the second.

C34A A60G U70C and C34A A60U U63C A87G cannot be ordered by nonsense suppression: no more than 0.026 for the first, no more than 0.026 for the second.

C34A A87C and C34A A87G cannot be ordered by nonsense suppression: no more than 0.026 for the first, no more than 0.026 for the second.

C34A C56G C81A and C34A C64U G88A cannot be ordered by nonsense suppression: no more than 0.026 for the first, no more than 0.026 for the second.

C34A C72G and C34A C77G cannot be ordered by nonsense suppression: no more than 0.026 for the first, no more than 0.026 for the second.

C34A C81G C82A and C34A C83U cannot be ordered by nonsense suppression: no more than 0.026 for the first, no more than 0.026 for the second.

C34A G61A and C34A G61C A74G cannot be ordered by nonsense suppression: no more than 0.026 for the first, no more than 0.026 for the second.

C34A G61C A87U and C34A G61C U63C A74U cannot be ordered by nonsense suppression: no more than 0.026 for the first, no more than 0.026 for the second.

C34A G61U and C34A G65U cannot be ordered by nonsense suppression: no more than 0.026 for the first, no more than 0.026 for the second.

C34A G66C and C34A G67A A87U cannot be ordered by nonsense suppression: no more than 0.026 for the first, no more than 0.026 for the second.

C34A G67A G85C A87U and C34A G67C G73A cannot be ordered by nonsense suppression: no more than 0.026 for the first, no more than 0.026 for the second.

C34A G69A and C34A G69U cannot be ordered by nonsense suppression: no more than 0.026 for the first, no more than 0.026 for the second.

C34A G78C and C34A G78U cannot be ordered by nonsense suppression: no more than 0.026 for the first, no more than 0.026 for the second.

C34A G84A A87G and C34A G85C cannot be ordered by nonsense suppression: no more than 0.026 for the first, no more than 0.026 for the second.

C34A U35A and C34A U35C cannot be ordered by nonsense suppression: no more than 0.026 for the first, no more than 0.026 for the second.

C34A U35C G69A U71C and C34A U55A C80A cannot be ordered by nonsense suppression: no more than 0.026 for the first, no more than 0.026 for the second.

Work on C34A U55C G66A yielded a nonsense suppression of no more than 0.026.
